Laboratory results reported in PMC4336329 (PLoS ONE, 2015).
Hit rate of the full screen: of about 310,000 compounds, about 2,200 (0.71%) showed an effect of 50% or more. Effects have a minus sign here. Some of the results follow.

target: human ether-à-go-go-related gene (hERG) potassium channel (human, UniProt Q12809); test: primary screen, population patch clamp on CHO cells stably expressing hERG
Sequence (Q12809 whole entry, looked up): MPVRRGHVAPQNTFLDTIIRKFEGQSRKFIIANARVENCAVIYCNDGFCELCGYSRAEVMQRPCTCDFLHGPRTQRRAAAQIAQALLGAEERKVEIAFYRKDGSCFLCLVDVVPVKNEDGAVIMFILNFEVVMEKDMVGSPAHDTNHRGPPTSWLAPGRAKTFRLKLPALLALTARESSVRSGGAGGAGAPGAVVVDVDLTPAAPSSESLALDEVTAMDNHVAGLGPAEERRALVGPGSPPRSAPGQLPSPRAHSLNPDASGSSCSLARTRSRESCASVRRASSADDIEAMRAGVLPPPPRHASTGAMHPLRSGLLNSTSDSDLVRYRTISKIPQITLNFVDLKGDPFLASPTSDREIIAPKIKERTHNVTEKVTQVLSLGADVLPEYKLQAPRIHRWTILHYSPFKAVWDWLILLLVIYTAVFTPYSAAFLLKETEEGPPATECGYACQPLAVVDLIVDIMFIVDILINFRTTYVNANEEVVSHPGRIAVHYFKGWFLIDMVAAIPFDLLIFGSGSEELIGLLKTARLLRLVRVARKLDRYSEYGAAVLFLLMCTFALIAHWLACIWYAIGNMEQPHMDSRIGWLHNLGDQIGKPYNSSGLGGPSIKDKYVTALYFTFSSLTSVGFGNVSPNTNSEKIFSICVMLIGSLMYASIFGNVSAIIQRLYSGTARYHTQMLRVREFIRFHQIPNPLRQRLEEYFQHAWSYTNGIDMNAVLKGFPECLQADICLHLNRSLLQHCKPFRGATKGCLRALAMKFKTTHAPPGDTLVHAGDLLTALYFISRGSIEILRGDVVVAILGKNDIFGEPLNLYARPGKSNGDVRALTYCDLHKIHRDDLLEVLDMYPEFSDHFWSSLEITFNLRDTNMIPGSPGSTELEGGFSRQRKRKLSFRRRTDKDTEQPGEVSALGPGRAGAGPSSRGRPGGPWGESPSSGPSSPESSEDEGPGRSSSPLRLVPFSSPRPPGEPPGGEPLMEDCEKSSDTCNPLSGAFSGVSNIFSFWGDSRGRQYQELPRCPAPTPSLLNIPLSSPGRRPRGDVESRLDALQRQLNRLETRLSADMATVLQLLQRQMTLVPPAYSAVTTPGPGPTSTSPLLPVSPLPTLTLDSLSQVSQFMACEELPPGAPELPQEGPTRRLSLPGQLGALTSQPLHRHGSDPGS

In order of rising “hERG current change (%, negative = inhibition) at 1uM” value:
1. Cc1nc2ccccc2c(=O)n1-c1ccc(NS(=O)(=O)c2ccccc2)cc1  -5.12%
2. O=C(Nc1ccc(Cl)c(C(=O)N2CCOCC2)c1)c1ccccc1  -3.54%
3. Clc1cccc(-c2nc(NCCN3CCOCC3)c3ccccc3n2)c1  -1.75%
4. COCCNC(=S)N1CCc2cc(OC)c(OC)cc2C1COc1ccc(F)cc1 (stereo not shown)  -1.28%
5. CCCNC(=O)Cn1c(=O)oc2ccccc21  -1.14%
6. Cc1oc2c(C)c3oc(=O)c(CCC(=O)N4C[C@H]5C[C@@H](C4)c4cccc(=O)n4C5)c(C)c3cc2c1C  1.88%
7. CC(=O)c1cccc(NC(=O)C2C3C=CC(C3=C(c3ccccc3)c3ccccc3)C2C(=O)O)c1 (stereo not shown)  1.89%
8. CCN(CC)C(=O)C1CCCN(c2ccc([N+](=O)[O-])cc2/C=N/NC(=O)c2ccc([N+](=O)[O-])cc2)C1 (stereo not shown)  2.1%
9. CC1CCCCN1C(=O)c1ccc(C(=O)Nc2ccc(F)cc2)cc1 (stereo not shown)  2.29%
10. O=C(/C=C/c1ccco1)N1CCC(Cc2ccccc2)CC1  2.46%
11. O=C(NNC1=Nc2ccccc2SC1)c1ccc(Cl)cc1  2.47%
12. CN(C)C(=O)Oc1ccc(OCc2n(C)c3ccccc3[n+]2C)cc1.[Cl-]  2.84%
13. N#CC1=C(N)C(C#N)(C#N)[C@H](c2ccncc2)[C@H]2CN(C(=O)OCc3ccccc3)CC=C12  2.86%
14. CCCN(CCC)C1=N/C(=C\c2ccco2)C(=O)N1c1ccccc1  3.36%
15. COc1ccc(S(=O)(=O)NCc2ccc3c(c2)cc(C)n3C)cc1  3.39%
16. CSc1ccccc1OCc1cc(C(=O)NCc2cnc(C)cn2)no1  3.44%
17. O=C(COC(=O)C1CCN(S(=O)(=O)c2ccc3c(c2)OCCO3)CC1)NC1CCS(=O)(=O)C1 (stereo not shown)  3.6%
18. Cc1cc(NC(=O)COC(=O)c2c(C)nn(Cc3ccccc3)c2Cl)no1  3.78%
19. COc1cccc(CNc2nc3nc(C)cc(C)n3n2)c1  4.21%
20. O=C(NNC1=NS(=O)(=O)c2ccccc21)c1ccc(Cl)cc1  4.24%
21. CCN(CC(=O)Nc1c(F)cccc1F)C(=O)c1nc2nccc(C)n2n1  4.62%
22. O=C1C2C3C=CC(C2C(=O)N1CCO)C1C(=O)N(CCO)C(=O)C31 (stereo not shown)  4.85%
23. CCN(CC)CCCNC(=O)Cn1cnc2ccc(S(=O)(=O)N3CCC(C)CC3)cc2c1=O  5.39%
24. COc1ccccc1/C=C/C=N/NC(=O)c1cc(-c2ccco2)[nH]n1  6.15%
25. Cn1cc(C(CO)Cc2ccccc2)c2ccccc21 (stereo not shown)  6.21%
26. CN1CCN(c2ccccc2NS(=O)(=O)c2ccc3c(c2)CCN3C(=O)C2CCC2)CC1  6.36%
27. COC(=O)c1ccc(CN2CCCC(CNC(=O)Cc3ccc(OC)cc3)C2)cc1 (stereo not shown)  6.39%
28. C/C(CC(=O)Nc1ccc2c(c1)OCO2)=N\NC(=O)OC(C)(C)C  6.49%
29. COc1ccc(/C=N/NC(=O)CNc2ccc(Br)cc2)c(C(=O)O)c1OC  6.6%
30. COc1ccc(CC(=O)Nc2cc(C)on2)cc1  6.62%
31. Cc1ccc(-c2cc(=O)c3ccc(F)cc3[nH]2)cc1  6.71%
32. CCc1nnc(NS(=O)(=O)c2ccc(NC(=O)c3ccccc3OC)cc2)s1  6.72%
33. COc1cc(C(=O)OC(C)CN2CCCC2)cc(OC)c1OC.Cl (stereo not shown)  6.76%
34. COc1ccc(N=C2SCC(=O)N2c2ccc(OC)cc2)cc1  7.33%
35. CCOC(=O)COc1coc(CN2CCN(c3cccc(Cl)c3)CC2)cc1=O  7.82%
36. O=c1[nH]c(=S)[nH]c(O)c1N=Nc1cc2c(cc1[N+](=O)[O-])OCO2  7.82%
37. CCCCC(CCC(=O)Nc1ccn(-c2ccccc2)n1)C(=O)O (stereo not shown)  7.87%
38. Br.CCC1CC(CSC(=N)N)OC1=O (stereo not shown)  8.09%
39. Oc1ccc(/C=N/NC(=S)NCCN2CCOCC2)c(O)c1  8.12%
40. Cc1ccc(CN2CCC(Oc3cccc(C(=O)NCc4cccnc4)c3)CC2)o1  8.19%
41. COCC(=O)Nc1cc(Cl)ccc1C  8.21%
42. Cc1ccc(-c2nnn(CC(=O)N(CCO)C(C(=O)NC(C)(C)C)c3ccncc3)n2)cc1 (stereo not shown)  8.43%
43. O=C1COc2ccc(C(=O)COC(=O)/C=C/c3cccc(F)c3)cc2N1  9.4%
44. C[C@@H](CN=[N+]=[N-])CN1CC[C@H](C(C)(C)C)CCC1=O  9.49%
45. COc1cc(/C=N/N2C(C)CCCC2C)cc(Br)c1O (stereo not shown)  9.73%
46. COc1ccccc1CNC(=O)C(NC(=O)c1ccccc1)C(C)C (stereo not shown)  10%
47. CCCn1c(SCC(=O)Nc2nnc(-c3ccccc3)s2)nnc1-c1ccccn1  10%
48. Cc1ccc(CNc2ccc(N3C(=O)CC(C)C3=O)cc2[N+](=O)[O-])cc1 (stereo not shown)  10.1%
49. CNS(=O)(=O)c1cc(OC)c(OC)cc1CC(=O)OC  10.5%
50. NC(=O)CC(NC(=O)c1ccccc1)c1ccc(N2CCC(N3CCCC3)CC2)c([N+](=O)[O-])c1 (stereo not shown)  10.5%
51. O=C(c1cc(Br)ccc1Cl)N1CCCC1  10.6%
52. CC(NCc1ccccc1Cl)C(O)c1ccccc1.Cl (stereo not shown)  10.7%
53. Cc1ccc(S(=O)(=O)N(C)C)cc1NC(=O)c1ccc2ccccc2n1  10.9%
54. COCc1cc(C)nc(SCC(=O)Nc2cc3c(cc2C#N)OCO3)c1C#N  10.9%
55. OCC[C@H]1C[C@H](O)[C@@H](O)[C@@]2(CCc3ccccc3CO2)O1  11%
56. CCOC(=O)c1c(C)[nH]c(C)c1C(=O)COC(=O)c1c(OC)cccc1OC  11.1%
57. O=C1CN(C(=O)CSc2nc3ccccc3n2CCc2ccccc2)c2ccccc2N1  11.2%
58. CC1=NNC(=O)C1CCC(=O)N/N=C/C=C/c1ccccc1 (stereo not shown)  11.3%
59. Cc1ccc(N2C(=O)Nc3ccccc3C2(O)C(=O)NCCCOC(C)C)cc1C (stereo not shown)  11.4%
60. COc1cccc(-c2cc(C(=O)NCC3CCCO3)on2)c1 (stereo not shown)  11.5%
61. C=C1CCN([C@@H](Cc2ccccc2)C(=O)Nc2ccc(OC)cc2)S(=O)(=O)c2ccccc21  11.6%
62. CCN1CCN(C(=O)c2ccc3c(c2)N(Cc2ccccc2F)C(=O)c2ccccc2S3(=O)=O)CC1  11.8%
63. Cc1onc(-c2ccccc2)c1C(=O)N1CCN(c2ccccc2F)CC1  11.9%
64. Cc1ccc(NC(=O)c2ccc3c(c2)OCCO3)cc1S(=O)(=O)Nc1cccc(Cl)c1  12.3%
65. O=C(NCc1ccco1)c1ccc(N2CCOCC2)c([N+](=O)[O-])c1  12.3%
66. COc1ccc(C(=O)N2CCC3(CC2)NCCc2[nH]cnc23)cc1  12.4%
67. Cc1sc2nc(CN3CCOCC3)nc(N3CCC(C(N)=O)CC3)c2c1C  12.5%
68. Cc1cccc(-n2c(C)c(C)c3c(N)ncnc32)c1  12.6%
69. CC(C)Cn1c(CN2CCN(C)C(CCO)C2)nc2ccccc21 (stereo not shown)  12.7%
70. Fc1ccc(Cn2nnc3ccccc32)cc1  12.8%
71. COc1ccc(Cl)cc1NC(=O)CN(C)C(=O)c1ccc(COc2ccccc2)cc1  13.5%
72. COc1ccc(NC(=O)Cn2nnc(-c3ccccc3F)n2)cc1Cl  13.6%
73. O=[N+]([O-])c1ccc(S(=O)(=O)Nc2ccc3c(c2)OCCO3)cc1  14%
74. CCCn1c(-c2ccc(OC)cc2)nc2c(=O)n(C)c(=O)[nH]c21  14.8%
75. COc1cccc(C(=O)NC2CCSC2=O)c1 (stereo not shown)  15.2%
76. Cc1nc2ccccc2n(CC(=O)Nc2cc(Cl)cc(Cl)c2)c1=O  15.5%
77. COC(CN(C)C(=O)C1CCC(CNS(=O)(=O)c2ccccc2)CC1)OC (stereo not shown)  15.7%
78. Cc1cccc(C)c1N=Nc1c(C)cc(O)cc1C  16.3%
79. CCn1c(SCC(=O)NCCc2ccccc2)nc2c([nH]c3ccccc32)c1=O  16.4%
80. CNc1nc(SC)nc2ccsc12  16.6%
81. Cc1nc2c(ccc3c([N+](=O)[O-])cccc32)c(C)c1C  16.7%
82. Fc1ccc(/C=N/n2cnn(Cc3ccccc3Cl)c2=S)cc1  17%
83. CN(C)CCCNc1nc(N)c([N+](=O)[O-])c(NCCO)n1  17%
84. O=C(CC(C(=O)O)c1c(F)cccc1Cl)c1ccc(Cl)cc1 (stereo not shown)  17.6%
85. COc1ccc(-c2nc(NC(=O)C3CC(=O)N(c4ccc5c(c4)OCCO5)C3)sc2C)cc1 (stereo not shown)  18%
86. COc1ccc(-c2nc3ccccc3nc2-c2ccccc2)cc1  18.1%
87. O=C(CSc1n[nH]c(=O)[nH]c1=O)N/N=C/C=C\c1ccccc1  19.1%
88. COc1ccc(F)cc1S(=O)(=O)NCC(=O)NCc1cc(=O)n(C)c(=O)n1C  34.4%
